Measured values published in the supplement of paper PMC10126150.
Sequences with one replicate were seen in a single cluster, so their values are uncertain.

tested on: ATP; test: switch fluorescence ratio, 500 uM ATP over buffer (Cy3 cluster intensity, sum of 5 cycles each) (fold (ratio)); higher = stronger signal-on switching upon ATP binding; sequences stand for … in TCGTCGGCAGCGTCAGATGTGTATAAGAGACAGTTTTTTTTTTTTTTTTTTTTTTTTT…TC; settings: aptamer strand: ATP DNA aptamer (quencher-CACCTGGGGGAGTATTGCGGAGGAAGG + anchor), 100 nM annealed; ATP concentration: 500 uM; one replicate
How it was run: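 Clusters carrying Cy3-labelled switching strands on a modified Illumina MiSeq flow-cell were annealed to 100 nM quencher-labelled ATP aptamer and imaged in selection buffer. They were imaged again after 15 min with 500 uM ATP at 22 °C, over five buffer/ATP cycles with NaOH stripping and re-annealing in between. For each cluster, the fluorescence ratio is the summed Cy3 intensity of the target cycles divided by that of the buffer cycles, averaged per switch-domain sequence. Clusters outside 100-1000 RFU were left out.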
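Also: ATP exposure 15 min at 22 °C before imaging.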

Sequence	switch fluorescence ratio
CACACAGAGC	1.06
CACACGGCGG	0.962
CACACGTGTC	0.986
CACACTGAGA	1.05
CACACTTCCG	1.22
CACAGCGTA	1.06
CACAGGTATA	0.991
CACAGTGGA	1.02
CACAGTTCCC	1.02
CACATAATAA	0.988
CACATCATAG	0.994
CACATGAGGG	0.999
CACATGGTCT	1
CACATGTCGC	1.01
CACATTGGAC	1.07
CACATTGGCA	1.01
CACCAACTGG	1.01
CACCACCCC	1.22
CACCAGCCAG	1.07
CACCATCCAA	1.05
CACCCAAGCA	1.13
CACCCAGCA	1.32
CACCGAGGGG	1.01
CACCGAGTGT	1.05
CACCGATATT	1.1

Sequence	switch fluorescence ratio
CACCGGGGAA	0.997
CACCGGTCGT	0.962
CACCGTC	1.14
CACCGTCGTC	0.986
CACCTCAATA	2.55
CACCTCTCGT	1.03
CACCTGCGAT	2.33
CACCTTAAAT	1.05
CACCTTTTTG	0.999
CACGAATATT	1.04
CACGACTCGA	1.11
CACGAGAAAA	1.06
CACGAGGGAT	1.94
CACGAGGGCG	0.979
CACGATGGGA	1.06
CACGATTATC	1.06
CACGCAATCG	4.52
CACGCATCCG	1.04
CACGCGCGCA	1.05
CACGGCGGT	1.04
CACGGGTGTG	1.07
CACGGTGCGA	0.946
CACGGTGTTT	1.04
CACGGTTATG	1.08
CACGTACGGA	1.72

Sequence	switch fluorescence ratio
CACGTCATGG	1.21
CACGTCGGGA	0.973
CACGTGAAGG	1.02
CACGTGACGG	1.19
CACTAAAGAA	1
CACTACACAA	1.27
CACTACGCCA	2.61
CACTAGGGT	0.996
CACTAGGGTT	1.15
CACTAGTTGA	1.01
CACTCAAAGT	1.02
CACTCAGAAG	0.995
CACTCAGCGG	1.18
CACTCAGGTC	1.2
CACTCGCTGC	2.15
CACTCGGGTC	1.02
CACTCTAGGG	0.982
CACTCTTCGA	0.989
CACTGAGAGC	1.02
CACTGGATCG	1.05
CACTTAAACA	1.04
CACTTCCGAT	1.78
CACTTCCGGA	1.12
CACTTGACGC	1.15
CACTTGGACA	1.04

Sequence	switch fluorescence ratio
CACTTGTATA	1.01
CACTTGTGAA	0.977
CACTTGTTCG	1.03
CACTTTAGAG	0.955
CACTTTATCT	0.991
CACTTTCTAA	0.989
CAGAAAATAA	1.39
CAGAAAATCC	1.01
CAGAAACGCA	1.05
CAGAAAGTGT	1.01
CAGAACAAAC	1.11
CAGAAGTGGA	0.948
CAGAATTTT	1.02
CAGACAATGG	1.01
CAGACACATA	1.14
CAGACATTCT	1.02
CAGACCCAGC	1.02
CAGACTCATT	1.1
CAGACTTAAA	1.04
CAGACTTTTT	1.13
CAGAGCCTTC	1.01
CAGAGGATTG	0.999
CAGAGGGAAG	1
CAGAGGGGAT	0.949
CAGAGTGATC	1.01
